The campaign covered roughly 150,000 compounds. About 540 (0.36%) showed an effect of 50% or more. This is one part of the list.

In the test the test system is Plasmodium falciparum. As to the kind of experiment: Primary screen in NF54 nanoGlo assay, in single point, at 2uM, 72h; a lower Z score goes with more inhibition. In kind it is functional, Erythrocyte. The following applies: timepoint 72 hour.
A word on the % Inhibition: it is the drop in the measured response relative to a control, in per cent. Turning to `CN(Cc1cccc(F)c1)C(=O)c1ccc(S(=O)(=O)N2CCOCC2)cc1`, the “% Inhibition” value is -4% and the Z score is 0.73.
The corresponding values for `Cc1cc(NC(=O)CN2CCCC[C@@H]2Cn2cncn2)on1` are -7% and 1.04.
Consider `Cc1cc(C)cc(Nc2nc3ccncc3n(Cc3ccccc3)c2=O)c1`, for which the “% Inhibition” value was 3% and the Z score is reported as -0.28.
On to `CN(Cc1cccc(NS(=O)(=O)c2ccccc2)c1)C[C@]1(O)CCCOC1`, for which the “% Inhibition” value is listed as -3% and the Z score is listed as 0.52.
Take `CCN(C)c1cccc(NC(=O)N(C)C[C@H](C)C(=O)NC)c1`: the “% Inhibition” value is recorded as -15% and the Z score was found to be 1.54.
Consider `CCc1ccc(CNC(=O)[C@@H]2CCCCc3nn(Cc4cccc(F)c4)c(=O)n32)cc1`, for which the “% Inhibition” value is -4% and the Z score came to 0.37.
The matching figures for `NC(=O)CCn1ccc(NCc2cccc3cn[nH]c23)n1`: -6% and 0.89.
As to `Cc1ccc(Cl)cc1N1CCN(C(=O)c2cc(-c3cccc4ccccc34)[nH]n2)CC1`, the “% Inhibition” value is reported as -12% and the Z score was determined as 2.38.
The corresponding values for `N[C@@H]1CCN(C(=O)c2ccc(Oc3ccc(F)c(F)c3)cc2)C1` are -9% and 0.91.
In the case of `Cc1noc(-c2cccc(C(F)(F)F)c2)c1C(=O)NCCCN(C)c1ccccc1`, the “% Inhibition” value is listed as -6% and the Z score is 0.78.
The matching figures for `CC(C)c1cc(C(=O)Nc2ccc(Cl)cc2)nc2ccnn12`: 10% and -1.62.
For `COc1ccc(CCc2n[nH]c(NC(=O)CCc3c[nH]c4ccccc34)n2)cc1OC`, the “% Inhibition” value was 36% and the Z score is recorded as -5.88.
Turning to `CO[C@H]1CCCOC12CCN(C(=O)CCc1scnc1C)CC2`, the “% Inhibition” value was -8% and the Z score was 1.44.
The corresponding values for `CCc1nc(C)c(C(=O)N(C)Cc2cc[nH]n2)s1` are 5% and -0.85.
In the case of `COCc1nn2cc(C(=O)c3ccc(OC)c(OC)c3)nnc2c1-c1ccccc1`, the “% Inhibition” value amounted to 8% and the Z score was -1.29.
With `O=C(CCn1cnnn1)N1CCC2(CC1)CC(=O)N(Cc1ccccc1)C2`, the “% Inhibition” value is -4% and the Z score worked out at 0.6.
The matching figures for `Cc1csc(C(C)(C)NC(=O)Nc2nnc3ccccn23)n1`: -4% and 0.58.
For `C/C(=N\c1ccc(C2CCCC2)cc1)Nc1ccc(C2CCCC2)cc1`, the “% Inhibition” value is -3% and the Z score was found to be 0.53.
The matching figures for `C[C@@H](c1ccncn1)N(C)Cc1ccc(C2CCCC2)s1`: -10% and 1.12.
The corresponding values for `O=C1C[C@H](Cc2ccc(F)cc2)C(=O)N1CCCn1ccnc1` are -11% and 1.7.
In the case of `CC(=O)c1ccc(N2CC[S+]([O-])CC2)nc1`, the “% Inhibition” value is on record as 32% and the Z score is on record as -1.13.
The matching figures for `CC(C)C[C@H](CNC(=O)[C@H]1CCCO1)CC(=O)OC1CCOC1` (stereo partly specified): -8% and 1.11.
The matching figures for `CNC(=O)[C@@H]1CN(S(=O)(=O)c2ccc(Cl)s2)C[C@H]1c1nc(C)n[nH]1`: -2% and 0.24.
Take `COc1cccc(-c2nccn2[C@@H](C)c2csc(C)n2)c1OC`: the “% Inhibition” value was -4% and the Z score is given as 0.8.
On to `C=CCOC[C@@H](O)CN(Cc1c(-c2ccccc2)nn(C)c1Oc1ccc(Cl)cc1)C1CC1`, for which the “% Inhibition” value is recorded as -3% and the Z score is 0.35.
As to `Cc1cccc(C)c1NC(=O)C1CCN(S(=O)(=O)c2ccc3c(c2)nc(C)n3C2CCCC2)CC1`, the “% Inhibition” value is on record as -13% and the Z score amounted to 2.36.
As to `Cc1ccc(Cl)c(S(=O)(=O)Nc2nonc2C)c1`, the “% Inhibition” value was -5% and the Z score is on record as 1.05.
The matching figures for `Cc1nc(-c2cc(S(=O)(=O)NCc3ccco3)cn2C)sc1C(=O)N1CCCC1`: -1% and 0.09.
Turning to `Cc1cccc(OC2CCN(c3nc(CO)cs3)CC2)c1`, the “% Inhibition” value is -8% and the Z score is 0.95.
The matching figures for `CC(=O)N[C@H]1CCN(Cc2cn(-c3ccccc3F)nc2-c2cc(C)sc2C)C1`: 6% and -0.75.
For `CCn1ccc2cc(S(=O)(=O)N3CCC[C@H](C(=O)NCCCOC(C)C)C3)ccc21`, the “% Inhibition” value was -8% and the Z score was determined as 1.28.
`Cc1cc(C(=O)N2CCCCC2)c2c(=O)n(CC(=O)Nc3ccc(C(C)C)cc3)c(=O)n(C)c2n1`: the “% Inhibition” value was -2% and the Z score came to 0.35.
The corresponding values for `O=C(CNC(=O)NCC1CCCC1)NCCCn1ccnc1` are -8% and 1.43.
`Cc1ccc(C(=O)OC[C@H]2COC(=O)N2)c(F)c1`: the “% Inhibition” value was -11% and the Z score is 1.72.
The corresponding values for `CCOc1cc(NCc2nc(C)c(C)o2)ncn1` are -5% and 0.91.
The corresponding values for `CCOCC1CCCN(C(=O)NC(C)c2nccs2)C1` (stereo unspecified) are -4% and 0.47.
The corresponding values for `CCCN(CCC)C(=O)CCC(=O)OCCNc1ncccn1` are 1% and -0.18.
With `C=CCNC(=O)NCC1C(C)OC(C)(C)N1C(=O)OC(C)(C)C` (stereo unspecified), the “% Inhibition” value is given as -10% and the Z score came to 0.97.
The corresponding values for `O=C(CN1CCOCC1)Nc1ncc(Cc2cc(Cl)cc(Cl)c2)s1` are -18% and 3.26.
Take `O=C(Nc1nc2ccccc2s1)N1CCC[C@H]1c1ccncc1`: the “% Inhibition” value is on record as 15% and the Z score was -1.91.
The matching figures for `CC1=C[C@@H](CN2CCN(c3ncccn3)CC2)[C@H](C(C)C)C[C@H]1Cc1nnc(C)o1`: -9% and 1.18.
Turning to `O=C(NC1CCC(N2C(=O)CCC2=O)CC1)c1ccc(Cl)cc1O` (stereo unspecified), the “% Inhibition” value is recorded as 29% and the Z score is reported as -3.28.
On to `COc1ncccc1CCNC(=O)N1CCO[C@](C)(C(F)F)C1`, for which the “% Inhibition” value is on record as -3% and the Z score is on record as 0.6.

The values are drawn from ChEMBL document CHEMBL4888484, “Replenishing the malaria drug discovery pipeline: Screening and hit evaluation of the MMV Hit Generation Library 1 (HGL1) against asexual blood stage Plasmodium falciparum ,using a nano luciferase reporter read-out” (2022).
